{
  "source": "the supplement of paper PMC11417369",
  "note": "± gives the standard deviation of the averaged measurements. The list shows a part of the results.",
  "data": [
    {"tested_on": "PfAP2-EXP AP2 domain (GST-tagged)", "assay": "gcPBM binding intensity (ln(normalized median fluorescence intensity)); higher = stronger DNA binding", "how_it_was_run": "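After 1 h on an Agilent 4 × 180k array of primer-extended double-stranded 36-bp intergenic genomic probes and negative controls, bound GST-tagged P. falciparum DNA-binding domains were detected with Alexa488 anti-GST antibody and scanned at 488 nm. The domains had been expressed in E. coli, and binding took place in 1× PBS with 1% milk, 0.2 mg/ml BSA, 0.5% salmon testes DNA and 0.03% Triton X-100. Binding intensity is the highest Masliner-normalised natural-log median intensity across replicate spots of either probe orientation.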", "values": [
      {"sequence": "TTTTTAAATATATAATAGAATTGATTGTATTATATA [CACACA_negctrl_site196]", "gcPBM binding intensity (ln)": "7.96 ± 0.56"},
      {"sequence": "GTATGAAAAAAAATATGTACACATATATATTTGGTA [XGTACX_site6309]", "gcPBM binding intensity (ln)": "8.44 ± 0.27"},
      {"sequence": "CCTTTATACATTTTCTGTACTGATATATATTAAAAA [XGTACX_site8467]", "gcPBM binding intensity (ln)": "8.74 ± 0.34"},
      {"sequence": "TTGTGTTCTTATTTTTACACCGAAAAATATTAAAAG [CACACA_negctrl_site535]", "gcPBM binding intensity (ln)": "8.55 ± 0.29"},
      {"sequence": "ATATAAAAAAAAAAAAAAAAATATATATATATATAT [GTGCAC_negctrl_site251]", "gcPBM binding intensity (ln)": "10.2 ± 0.13"},
      {"sequence": "TTGGTTTGAAAGAAAGAAATTATTAAAAAGGAAATA [CACACA_negctrl_site26]", "gcPBM binding intensity (ln)": "8.48 ± 0.47"},
      {"sequence": "GATATACTGTCAATTCTACACACCATAGGGGGAGCA [CACACA_site8562]", "gcPBM binding intensity (ln)": "9.68 ± 0.33"},
      {"sequence": "TATATTTATATACCAACACACATACATATTTATATA [CACACA_site6931]", "gcPBM binding intensity (ln)": "8.45 ± 0.57"},
      {"sequence": "AAAATTCAGCGAAAGGGTACATATGTGTAAGGGTAA [XGTACX_site8205]", "gcPBM binding intensity (ln)": "9.18 ± 0.5"},
      {"sequence": "CTATTATATCAGTAGACACACATATAACATTTATAT [CACACA_site141]", "gcPBM binding intensity (ln)": "8.6 ± 0.4"},
      {"sequence": "ATATTATATAGAAACACACATACACATGTAAATATA [CACACA_site2037]", "gcPBM binding intensity (ln)": "8.83 ± 0.57"},
      {"sequence": "TTTATTAAACTTGACACACACACACCCACATATATA [CACACA_site760]", "gcPBM binding intensity (ln)": "8.78 ± 0.33"},
      {"sequence": "ATCTTATATTATCACACACACACGCACAAAACAGAA [CACACA_site1463]", "gcPBM binding intensity (ln)": "9.02 ± 0.49"},
      {"sequence": "TAATTATTTCGTATATTTGAATGGTACATGCTTATA [CACACA_negctrl_site1178]", "gcPBM binding intensity (ln)": "8.44 ± 0.37"},
      {"sequence": "ATATAGAAAATGCATACACACTTTATATATATATTT [CACACA_site4658]", "gcPBM binding intensity (ln)": "8.26 ± 0.63"},
      {"sequence": "ATGGATTTTACCATAGCACACATATATGAATATTTT [CACACA_site8535]", "gcPBM binding intensity (ln)": "8.53 ± 0.47"},
      {"sequence": "AATGTGCTCGCTATTACACACTCATTGGGATAAAAT [CACACA_site8627]", "gcPBM binding intensity (ln)": "8.55 ± 0.39"},
      {"sequence": "AGTAACAATTATTATGCATGTACAAATAATCATTTT [TGCATGCA_site867]", "gcPBM binding intensity (ln)": "8.71 ± 0.28"},
      {"sequence": "TATATATATTTTTGAAGTACTTATTACACTAGCATT [XGTACX_site8965]", "gcPBM binding intensity (ln)": "8.73 ± 0.35"},
      {"sequence": "AAGAAAATATAACAAAGTAAAAACATATTATATATA [TGCATGCA_negctrl_site248]", "gcPBM binding intensity (ln)": "8.32 ± 0.41"},
      {"sequence": "TTTTTTTTTTTTTAATGTACAAATATGGTGACAAAA [XGTACX_site8709]", "gcPBM binding intensity (ln)": "8.44 ± 0.42"},
      {"sequence": "AAAAACGATTAATGTGTACACACATAGTTATAAACA [CACACA_site8659]", "gcPBM binding intensity (ln)": "8.64 ± 0.34"},
      {"sequence": "TTGTTCTATAATTATACATGCATTAACAGAGTAAAA [TGCATGCA_site909]", "gcPBM binding intensity (ln)": "9.38 ± 0.57"},
      {"sequence": "ATATATATATATATATGTACATATATTTTCTTTTTG [XGTACX_site6017]", "gcPBM binding intensity (ln)": "10.1 ± 0.27"},
      {"sequence": "AGGATAACATACAAAAGTACATAAAACTAAAAAAAC [XGTACX_site26]", "gcPBM binding intensity (ln)": "9.09 ± 0.26"},
      {"sequence": "TGGGAATAACGACACACACACACACGGATATAAATA [CACACA_site7633]", "gcPBM binding intensity (ln)": "8.91 ± 0.64"},
      {"sequence": "AAAAATAGTCTTCTTGCACTTTTTAATTTATTTTAA [CACACA_negctrl_site1322]", "gcPBM binding intensity (ln)": "8.29 ± 0.23"},
      {"sequence": "TGATTATCCTATATATATTTCATAATGGAAAAAAAT [TGCATGCA_negctrl_site444]", "gcPBM binding intensity (ln)": "8.21 ± 0.38"},
      {"sequence": "AATGTGGTATTTACAAAAAGGCTTTATACTTAAAAA [XGTACX_negctrl_site566]", "gcPBM binding intensity (ln)": "8.38 ± 0.43"},
      {"sequence": "TATATTTTGTTTTTGTGTACATATTGGTAGTTATTT [XGTACX_site7659]", "gcPBM binding intensity (ln)": "8.95 ± 0.43"},
      {"sequence": "CTTTTCATCTTCTTAACACACAAAAAAAAAAAAAAA [CACACA_site3886]", "gcPBM binding intensity (ln)": "8.29 ± 0.4"},
      {"sequence": "TTTGTTAAAAATATATTATGAATAAAAATATATTTT [CACACA_negctrl_site170]", "gcPBM binding intensity (ln)": "8.03 ± 0.33"},
      {"sequence": "AATTATATTACGAAATGTACATATAATAATGTATAT [XGTACX_site4410]", "gcPBM binding intensity (ln)": "8.48 ± 0.38"},
      {"sequence": "TTCAAAACTTAAAATCGTACAAGACAATTATTATAT [XGTACX_site6626]", "gcPBM binding intensity (ln)": "8.38 ± 0.42"},
      {"sequence": "GCCATTGTACCATCCACACACATATATATATGTATA [CACACA_site2704]", "gcPBM binding intensity (ln)": "9.24 ± 0.42"},
      {"sequence": "TATGTCAATCAAGCAAGTACATATATATATAAATAT [XGTACX_site7554]", "gcPBM binding intensity (ln)": "8.47 ± 0.42"},
      {"sequence": "TACAAAATAACTAGCACACATATGTATAAACATATA [CACACA_site5948]", "gcPBM binding intensity (ln)": "8.46 ± 0.35"},
      {"sequence": "TTAAAACATAAAAAAAGTACATACAAATATATATAA [XGTACX_site789]", "gcPBM binding intensity (ln)": "8.7 ± 0.3"},
      {"sequence": "CATATATATTTATGTACACACATTAATAAAAAAAAA [CACACA_site5741]", "gcPBM binding intensity (ln)": "8.58 ± 0.27"},
      {"sequence": "TTTTTTGTTATTGGCGTGCACATATCCATTTATAGT", "gcPBM binding intensity (ln)": "9.22 ± 0.071"},
      {"sequence": "CTTTTAATATTAAGATGTACTTAGAATTTTTTTTTT [XGTACX_site8338]", "gcPBM binding intensity (ln)": "8.29 ± 0.45"},
      {"sequence": "AACAGCATATCACATTTCTTCAAAAAAAAATAAAAT [CACACA_negctrl_site733]", "gcPBM binding intensity (ln)": "8.37 ± 0.5"},
      {"sequence": "TGTAGAGCGCAAAGTAGTACTACAAATTATGGAGGG [XGTACX_site3022]", "gcPBM binding intensity (ln)": "9.71 ± 0.74"},
      {"sequence": "ATATATATAAATAATTGTACTTAAAAAAAAAAAAGG [XGTACX_site6847]", "gcPBM binding intensity (ln)": "8.5 ± 0.23"},
      {"sequence": "GATTAATTTAAAAAATGTACATTTTATTGTATAACC [XGTACX_site5539]", "gcPBM binding intensity (ln)": "8.47 ± 0.31"},
      {"sequence": "TAAACACCCATATAAACACACATACATACATACATA [CACACA_site5383]", "gcPBM binding intensity (ln)": "8.77 ± 0.39"},
      {"sequence": "ACAATATGTATATATATATATATGCAAATGTATAAA [CACACA_negctrl_site53]", "gcPBM binding intensity (ln)": "8.59 ± 0.31"},
      {"sequence": "CCAAGAAACCAAAAAAGTACATACATGGTTATAATT [XGTACX_site4249]", "gcPBM binding intensity (ln)": "8.91 ± 0.31"},
      {"sequence": "TGAACTCATAGATTTAGTACATATATAAAAAAATTC [XGTACX_site1692]", "gcPBM binding intensity (ln)": "8.32 ± 0.33"},
      {"sequence": "ATATTAAATTCAATTTAATGTTTTGTGAATTTTAGA [CACACA_negctrl_site1421]", "gcPBM binding intensity (ln)": "8.28 ± 0.39"},
      {"sequence": "TTAAATGGAAAAATATGTACATATATATATATATTT [XGTACX_site2286]", "gcPBM binding intensity (ln)": "8.52 ± 0.22"},
      {"sequence": "TATACACGCGGACACACACACACACGCAAAAAAAAA [CACACA_site6377]", "gcPBM binding intensity (ln)": "8.8 ± 0.47"},
      {"sequence": "ATAAGCCATTTTTGTGGTACATAAAATAGATATATA [XGTACX_site5175]", "gcPBM binding intensity (ln)": "8.35 ± 0.35"},
      {"sequence": "TTTACACCGTAATATGCATGTGTGTATATATTTTTG [TGCATGCA_site186]", "gcPBM binding intensity (ln)": "8.47 ± 0.35"},
      {"sequence": "TAAAAACCAAAGAAAAGTACAAATTTAAATGAGAAA [XGTACX_site7450]", "gcPBM binding intensity (ln)": "8.86 ± 0.57"},
      {"sequence": "CATCTTAGTTTGAGTTGTACAATATTTATAAAAATA [XGTACX_site693]", "gcPBM binding intensity (ln)": "8.63 ± 0.35"}
    ]}
  ]
}
